What all share (details): 20 mM HEPES pH 7.9, 100 mM NaCl, 1 mM DTT, 0.2 mg/mL BSA, 0.02% Triton X-100, 2% milk, 0.4 mg/mL salmon testes DNA; 1 h; temperature not stated; high values mean tight binding; double strand, one strand shown; sequences stand for … in GCCTAGCAC…GTGCTAGGTCTTGATTCGCTTGACGCTGCTG
For one test, the target named is PU.1 (IVT) (UniProt P17947). The experiment in a line: protein-binding microarray (PBM).
The target of test [1] is PU.1 (endogenous, THP-1 nuclear extract) (UniProt P17947). The experiment in a line: nuclear extract protein-binding microarray (nextPBM).
The target of test [2] is T1, FLI1 (endogenous, THP-1 nuclear extract) (UniProt Q01543).
T1 sequence: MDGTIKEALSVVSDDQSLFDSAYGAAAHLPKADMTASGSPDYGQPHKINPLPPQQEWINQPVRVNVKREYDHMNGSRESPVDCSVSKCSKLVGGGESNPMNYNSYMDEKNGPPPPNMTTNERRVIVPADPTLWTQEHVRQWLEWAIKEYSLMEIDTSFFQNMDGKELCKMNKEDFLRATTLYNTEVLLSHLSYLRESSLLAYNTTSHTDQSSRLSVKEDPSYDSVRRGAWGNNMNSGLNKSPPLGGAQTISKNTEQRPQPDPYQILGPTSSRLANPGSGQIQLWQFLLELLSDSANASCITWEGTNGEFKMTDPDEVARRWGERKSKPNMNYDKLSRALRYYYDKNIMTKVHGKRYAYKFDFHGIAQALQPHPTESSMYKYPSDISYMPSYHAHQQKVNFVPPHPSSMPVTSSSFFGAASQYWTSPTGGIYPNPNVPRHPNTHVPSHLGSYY
The description is as above.

This is one part of the list. For part of these data: At the low end of the ranking the order means little. For part of these data: Measured with an extract: partners may take part in the binding.

AAGAAGAGGAAGTGGTTTAT: the binding signal was determined as 7.33 z-score with PU.1 (IVT), 7.18 z-score in test [1] and 4.22 z-score in test [2].
Turning to TCATTAAGGAAGTGAGAGAA, the binding signal with PU.1 (IVT) was found to be 3.83 z-score; in test [1], 3.73 z-score; in test [2], 2.39 z-score.
With CAGAAAGGGAAGTGGTGGGC, the binding signal was 4.1 z-score in the test with PU.1 (IVT), 4.85 z-score in test [1] and 2.11 z-score in test [2].
In the case of AAAAAAGGGAAATGACACCA, the values for the binding signal (with PU.1 (IVT); in test [1]; in test [2]) were 4.34 z-score, 3.99 z-score and 1.85 z-score, respectively.
The like results for TGGTTGAGGAAGTGGCTGAG were, in that order, 4.2 z-score, 4.14 z-score and 2.35 z-score.
The like results for TAAAAGAGGAACTCACAGTG were, in that order, 6 z-score, 6.33 z-score and 1.57 z-score.
For CCAAACAGGAAGTGCTATTT, the figures for the binding signal (in the test with PU.1 (IVT); in test [1]; in test [2]) were 5.67 z-score, 6.3 z-score and 5.69 z-score, respectively.
The like results for TCTAAGAGGAAGTGAAAATG were, in that order, 4.99 z-score, 6.16 z-score and 3.1 z-score.
Regarding GCAAAGGGGAAGTGAGAGGG, the binding signal came out at 5.27 z-score with PU.1 (IVT), 6.16 z-score in test [1] and 2.47 z-score in test [2].
The like results for AAAGTGGGGAAGTGACAAAA were, in that order, 3.36 z-score, 3.06 z-score and 1.19 z-score.
Turning to CGAAAGGTGAAGTGCTAAAC, the binding signal with PU.1 (IVT) was 0.794 z-score; in test [1] it was 0.887 z-score; in test [2], 0.421 z-score.
AGAAAGAGGAACTGCCCTGC: the binding signal turned out to be 6.95 z-score with PU.1 (IVT), 6.87 z-score in test [1] and 2.61 z-score in test [2].
As to TATATAGGGAAGTGGGATTC, the figures for the binding signal (in the test with PU.1 (IVT); in test [1]; in test [2]) were 4.85 z-score, 5.15 z-score and 1.5 z-score, respectively.
As to AATTTGAGGAACTACTGTGA, the binding signal with PU.1 (IVT) was found to be 5.62 z-score; in test [1], 5.69 z-score; in test [2], 1.53 z-score.
Regarding ACTTTGAGGAAGTGCAAAAT, the values for the binding signal (in the test with PU.1 (IVT); in test [1]; in test [2]) were 5.76 z-score, 5.96 z-score and 2.73 z-score, respectively.
The like results for CAGAAAAGGAAGTATATGGG were, in that order, 4 z-score, 3.33 z-score and 2.28 z-score.
For GGCAAGAGGAAGTGTTGCTG the same measures were 4.82 z-score, 5.08 z-score and 2.81 z-score.
For TTTAGGAGGAACTGTGAGGT the same measures were 2.26 z-score, 1.95 z-score and 0.824 z-score.
For AGAATGGGGAAGTGGAAAGG, the binding signal with PU.1 (IVT) worked out at 6.16 z-score; in test [1], 6.41 z-score; in test [2], 2.37 z-score.
As to AAAGAAAGGAACTGGCTAGA, the results for the binding signal (with PU.1 (IVT); in test [1]; in test [2]) were 1.14 z-score, 1.15 z-score and 0.666 z-score, respectively.
The like results for TAAAAAGGGAAGTGTATATA were, in that order, 6.46 z-score, 6.67 z-score and 2.58 z-score.
The like results for TCCTTGAGGAAGTGACTCTT were, in that order, 4.07 z-score, 4.46 z-score and 2.24 z-score.
For AGAAAGAGGAAGTCAAAACA the same measures were 7.68 z-score, 7.24 z-score and 3.78 z-score.
As for CTTGGGAGGAAGTGACTGTC, the binding signal in the test with PU.1 (IVT) was determined as 3.74 z-score; in test [1], 3.95 z-score; in test [2], 2.93 z-score.
As to AAAAAAAGGAACTGGCGAGA, the binding signal in the test with PU.1 (IVT) amounted to 4.12 z-score; in test [1], 3.86 z-score; in test [2], 1.68 z-score.
In the case of GGAAAGAGGAAGAGAGAGTG, the binding signal is 4.35 z-score with PU.1 (IVT), 5.05 z-score in test [1] and 1.82 z-score in test [2].
The like results for CGGAAGAGGAAGTGGTTGCG were, in that order, 6.73 z-score, 6.74 z-score and 5.06 z-score.
The like results for AGAAAGGGGAAGTGACTGCT were, in that order, 8.18 z-score, 7.35 z-score and 3.5 z-score.
As for ATGAAAAGGAAGTGGGAGGT, the results for the binding signal (with PU.1 (IVT); in test [1]; in test [2]) were 2.38 z-score, 2.64 z-score and 2.46 z-score, respectively.
Consider AAGAAGGGGAAGTGGGCTGG, for which the binding signal with PU.1 (IVT) amounted to 5.66 z-score; in test [1], 6.17 z-score; in test [2], 2.65 z-score.
For the sequence TGTAAGAGGAAGTTCTGCTT, the binding signal in the test with PU.1 (IVT) stood at 6.27 z-score; in test [1], 6.65 z-score; in test [2] it was 3.35 z-score.
On to AAAAGGGGGAAGTGGCAACA, for which the binding signal with PU.1 (IVT) turned out to be 5.93 z-score; in test [1], 6.07 z-score; in test [2], 3.12 z-score.
The like results for GGAAGGAGGAAGTCAGGGGC were, in that order, 4.69 z-score, 5.38 z-score and 2.65 z-score.
The like results for AAAAACAGGAAGTCAAAGGA were, in that order, 7.11 z-score, 7.03 z-score and 4.55 z-score.
For AGAAAGAGGAAGTCATATGG the same measures were 7.97 z-score, 7.33 z-score and 4.18 z-score.
As for GTTTTGAGGAAGTCTTAAAA, the binding signal in the test with PU.1 (IVT) worked out at 5.55 z-score; in test [1], 5.82 z-score; in test [2], 2.29 z-score.
The like results for AAAGAGAGGAAGTTCTTGCC were, in that order, 5.27 z-score, 4.41 z-score and 2.77 z-score.
The like results for TTTTTGAGGAACTGTCATAT were, in that order, 4.42 z-score, 4.02 z-score and 1.07 z-score.
The like results for GATAGGAGGAAGTCCTCTGT were, in that order, 4.43 z-score, 4.4 z-score and 2.35 z-score.
In the case of CGAACGGGGAAGTGCTAAAC, the binding signal with PU.1 (IVT) turned out to be 3.27 z-score; in test [1] it was 3.01 z-score; in test [2], 1.3 z-score.
The like results for AAAATGAGGAAGTGAACATC were, in that order, 8.21 z-score, 7.08 z-score and 4.11 z-score.
The like results for CACAAGGGGAAGTGGTAGGA were, in that order, 4.17 z-score, 4.83 z-score and 2.24 z-score.
For TGAGAGAGGAAGTGCACAGG the same measures were 3.83 z-score, 4.27 z-score and 2.46 z-score.
Turning to GAGAAGAGGAAGTGCCTTTC, the binding signal in the test with PU.1 (IVT) was 6.91 z-score; in test [1], 6.54 z-score; in test [2], 3.64 z-score.
For AAGGAGAGGAAGTGAGGGTC the same measures were 3.88 z-score, 3.98 z-score and 2.81 z-score.
The like results for AGAAAAGGGAACTGGCAAGC were, in that order, 4.26 z-score, 4.54 z-score and 1.1 z-score.
In the case of GAAAAGAGGAACTGCATGGG, the figures for the binding signal (with PU.1 (IVT); in test [1]; in test [2]) were 6.95 z-score, 6.9 z-score and 2.61 z-score, respectively.
Turning to CAAAAAGGGAGGTGGATGCT, the binding signal in the test with PU.1 (IVT) was 0.0907 z-score; in test [1], -0.129 z-score; in test [2] it was 0.214 z-score.
The like results for CAGAAGAGGAAGTCAGTGGG were, in that order, 5.66 z-score, 6.31 z-score and 3.11 z-score.
The like results for GAAAACAGGAAGTCGCATAG were, in that order, 6.79 z-score, 6.99 z-score and 4.84 z-score.
The like results for AAAAAAAGGAAATGGCTAGA were, in that order, 3.02 z-score, 2.51 z-score and 2.01 z-score.
Regarding CCAAAGGGGAAGTTAGGGCT, the results for the binding signal (with PU.1 (IVT); in test [1]; in test [2]) were 5.78 z-score, 6.28 z-score and 2.63 z-score, respectively.
Regarding AGAAAGAGGAAGTCCTCTCT, the binding signal in the test with PU.1 (IVT) came to 8.3 z-score; in test [1], 7.49 z-score; in test [2], 4.05 z-score.
AAAAAGGGGAAGTGACATAA: the binding signal with PU.1 (IVT) was determined as 8.47 z-score; in test [1] it was 7.44 z-score; in test [2], 3.71 z-score.
The like results for TAAAGAGGGAAGTGAGGACA were, in that order, 3.98 z-score, 4.53 z-score and 1.5 z-score.
With CAAAGAGGGAAGTGGATGCT, the values for the binding signal (in the test with PU.1 (IVT); in test [1]; in test [2]) were 4.55 z-score, 4.93 z-score and 1.84 z-score, respectively.
Turning to GAAAAGAGGAAGTCCAGCAA, the binding signal was determined as 8.19 z-score in the test with PU.1 (IVT), 7.3 z-score in test [1] and 3.33 z-score in test [2].
For CTGGAGAGGAAGTGGAGAAA the same measures were 3.66 z-score, 3.96 z-score and 2.94 z-score.
For AGAGAAAGGAAGTGAAATTC the same measures were 2.99 z-score, 2.52 z-score and 2.39 z-score.
The like results for CAAAGAGGGAAGTGACCTTC were, in that order, 5.06 z-score, 5.25 z-score and 2.07 z-score.

The record behind these values is paper PMC6451091.
